By IC50 is meant the dose at which the fit gives 50% viability; a limit (>, <) means that the fit lies beyond the doses tested. AUC is the area under the same curve over the 256-fold range up to the top dose, as a fraction: 1 means no effect, lower means more sensitive. For some assays here: Any top dose called inferred is not printed in the source and was worked back from the curve model. For some assays here: Drugs with an entry number were screened twice under separate entries, and the two screens often disagree.
How the values were obtained:
Assay in all cases: Viability of human cancer cell lines after 72 h of drug (GDSC screen)
UNC0638 = compound: COc1cc2c(NC3CCN(C(C)C)CC3)nc(C3CCCCC3)nc2cc1OCCCN1CCCC1 [UNC0638]
Experimental: (§1)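 Human cancer cell lines in 384-well plates, medium with 10% serum, drug for 72 h over a 256-fold dose range (nine 2-fold or five 4-fold steps up to the top dose). Adherent lines were fixed and stained with the nucleic acid dye Syto60, suspension lines read with resazurin; signal relative to control wells, capped at 0 and 100%. One two-parameter sigmoid per drug and line, fitted in a mixed model over all curves with the slope shared within a line.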

PI-103 = compound: Oc1cccc(-c2nc(N3CCOCC3)c3oc4ncccc4c3n2)c1 [PI-103]; settings: top dose 10.24 µM
Experimental: as §1

GSK690693 = compound: CCn1c(-c2nonc2N)nc2c(C#CC(C)(C)O)ncc(OC[C@H]3CCCNC3)c21 [GSK690693]; settings: top dose 10.24 µM; top dose inferred
Experimental: as §1

SB-505124 = compound: Cc1cccc(-c2[nH]c(C(C)(C)C)nc2-c2ccc3c(c2)OCO3)n1 [SB-505124]; settings: top dose 10 µM; top dose inferred
Experimental: as §1

BX-795 = compound: O=C(NCCCNc1nc(Nc2cccc(NC(=O)N3CCCC3)c2)ncc1I)c1cccs1 [BX-795]; settings: top dose 5 µM; top dose inferred
Experimental: as §1

Tretinoin = compound: CC1=C(/C=C/C(C)=C/C=C/C(C)=C/C(=O)O)C(C)(C)CCC1 [Tretinoin]; settings: top dose 10 µM; top dose inferred
Experimental: as §1

[1] = top dose 20 µM, screen: GDSC drug entry 1236, top dose inferred
[2] = top dose 40 µM, screen: GDSC drug entry 245

PCI-30 (head and neck, adherent) was tested. Which AUC (UNC0638; [1]) did it give?
Its AUC is 0.816.

What about the IC50 (UNC0638; [1]) of the same cell line?
Its IC50 is 14.4 µM.

And the AUC (UNC0638; [2])?
Its AUC is 0.984.

What about the IC50 (UNC0638; [2]) of the same cell line?
Its IC50 is > 40 µM.

What about the AUC (PI-103) of the same cell line?
Its AUC is 0.905.

What about the IC50 (PI-103) of the same cell line?
Its IC50 is > 10.2 µM.

What about the AUC (GSK690693) of the same cell line?
The AUC was 0.982.

And the IC50 (GSK690693)?
Its IC50 is > 10.2 µM.

What about the AUC (SB-505124) of the same cell line?
Its AUC is 0.98.

What about the IC50 (SB-505124) of the same cell line?
The IC50 was > 10 µM.

And the AUC (BX-795)?
Its AUC is 0.836.

And the IC50 (BX-795)?
Its IC50 is 4.43 µM.

What about the AUC (Tretinoin) of the same cell line?
Its AUC is 0.954.

What about the IC50 (Tretinoin) of the same cell line?
Its IC50 is > 10 µM.

How did the AUC (UNC0638; [1]) turn out when PE/CA-PJ15 (head and neck, adherent) was run?
Its AUC is 0.891.

What about the IC50 (UNC0638; [1]) of the same cell line?
Its IC50 is > 20 µM.

And the AUC (UNC0638; [2])?
Its AUC is 0.97.

What about the IC50 (UNC0638; [2]) of the same cell line?
Its IC50 is > 40 µM.

What about the AUC (PI-103) of the same cell line?
The AUC was 0.887.

What about the IC50 (PI-103) of the same cell line?
Its IC50 is > 10.2 µM.

What about the AUC (GSK690693) of the same cell line?
The AUC was 0.984.

And the IC50 (GSK690693)?
The IC50 was > 10.2 µM.

What about the AUC (SB-505124) of the same cell line?
The AUC was 0.984.

And the IC50 (SB-505124)?
The IC50 was > 10 µM.

And the AUC (BX-795)?
Its AUC is 0.895.

And the IC50 (BX-795)?
Its IC50 is > 5 µM.

What about the AUC (Tretinoin) of the same cell line?
Its AUC is 0.9.

And the IC50 (Tretinoin)?
Its IC50 is > 10 µM.

PEO1 (ovary, adherent) was tested. Which AUC (UNC0638; [1]) did it give?
The AUC was 0.824.

What about the IC50 (UNC0638; [1]) of the same cell line?
The IC50 was 12.5 µM.

What about the AUC (UNC0638; [2]) of the same cell line?
Its AUC is 0.902.

And the IC50 (UNC0638; [2])?
Its IC50 is > 40 µM.

What about the AUC (PI-103) of the same cell line?
Its AUC is 0.987.

What about the IC50 (PI-103) of the same cell line?
Its IC50 is > 10.2 µM.

And the AUC (GSK690693)?
The AUC was 0.987.

What about the IC50 (GSK690693) of the same cell line?
Its IC50 is > 10.2 µM.

What about the AUC (SB-505124) of the same cell line?
Its AUC is 0.985.

And the IC50 (SB-505124)?
Its IC50 is > 10 µM.

What about the AUC (BX-795) of the same cell line?
Its AUC is 0.894.

And the IC50 (BX-795)?
The IC50 was > 5 µM.

And the AUC (Tretinoin)?
Its AUC is 0.987.

And the IC50 (Tretinoin)?
The IC50 was > 10 µM.

What does the source list for “PF-382 (T-cell lymphoblastic leukaemia, suspension)”?
AUC (UNC0638; [1]): 0.831; IC50 (UNC0638; [1]): 10.6 µM; AUC (UNC0638; [2]): 0.533; IC50 (UNC0638; [2]): 3.03 µM; AUC (PI-103): 0.341; IC50 (PI-103): 0.247 µM; AUC (GSK690693): 0.731; IC50 (GSK690693): 2.62 µM; AUC (SB-505124): 0.988; IC50 (SB-505124): > 10 µM; AUC (BX-795): 0.91; IC50 (BX-795): > 5 µM; AUC (Tretinoin): 0.987; IC50 (Tretinoin): > 10 µM

PFSK-1 (medulloblastoma, adherent) was tested. Which AUC (UNC0638; [1]) did it give?
Its AUC is 0.691.

What about the IC50 (UNC0638; [1]) of the same cell line?
Its IC50 is 4.47 µM.

And the AUC (UNC0638; [2])?
Its AUC is 0.825.

And the IC50 (UNC0638; [2])?
Its IC50 is 25.9 µM.

And the AUC (PI-103)?
Its AUC is 0.978.

And the IC50 (PI-103)?
The IC50 was > 10.2 µM.

And the AUC (GSK690693)?
The AUC was 0.981.

What about the IC50 (GSK690693) of the same cell line?
Its IC50 is > 10.2 µM.

And the AUC (SB-505124)?
Its AUC is 0.888.

What about the IC50 (SB-505124) of the same cell line?
Its IC50 is > 10 µM.

What about the AUC (BX-795) of the same cell line?
Its AUC is 0.887.

And the IC50 (BX-795)?
Its IC50 is > 5 µM.

What about the AUC (Tretinoin) of the same cell line?
Its AUC is 0.963.

And the IC50 (Tretinoin)?
The IC50 was > 10 µM.

Which AUC (UNC0638; [1]) does the source give for PL4 (pancreas, adherent) here?
Its AUC is 0.816.

And the IC50 (UNC0638; [1])?
The IC50 was 11.6 µM.

And the AUC (UNC0638; [2])?
Its AUC is 0.917.

What about the IC50 (UNC0638; [2]) of the same cell line?
The IC50 was > 40 µM.

What about the AUC (PI-103) of the same cell line?
Its AUC is 0.893.

And the IC50 (PI-103)?
Its IC50 is > 10.2 µM.

And the AUC (GSK690693)?
The AUC was 0.987.

What about the IC50 (GSK690693) of the same cell line?
The IC50 was > 10.2 µM.

And the AUC (SB-505124)?
The AUC was 0.971.

And the IC50 (SB-505124)?
Its IC50 is > 10 µM.

What about the AUC (BX-795) of the same cell line?
The AUC was 0.938.

And the IC50 (BX-795)?
The IC50 was > 5 µM.

And the AUC (Tretinoin)?
Its AUC is 0.987.

What about the IC50 (Tretinoin) of the same cell line?
Its IC50 is > 10 µM.

What does the source list for QGP-1 (pancreas, adherent)?
AUC (UNC0638; [1]): 0.895; IC50 (UNC0638; [1]): > 20 µM; AUC (UNC0638; [2]): 0.62; IC50 (UNC0638; [2]): 6.53 µM; AUC (PI-103): 0.653; IC50 (PI-103): 2.21 µM; AUC (GSK690693): 0.946; IC50 (GSK690693): > 10.2 µM; AUC (SB-505124): 0.973; IC50 (SB-505124): > 10 µM; AUC (BX-795): 0.975; IC50 (BX-795): > 5 µM; AUC (Tretinoin): 0.977; IC50 (Tretinoin): > 10 µM

Which results are given for RC-K8 (B-cell lymphoma, suspension)?
AUC (UNC0638; [1]): 0.978; IC50 (UNC0638; [1]): > 20 µM; AUC (UNC0638; [2]): 0.818; IC50 (UNC0638; [2]): 18.8 µM; AUC (PI-103): 0.973; IC50 (PI-103): > 10.2 µM; AUC (GSK690693): 0.993; IC50 (GSK690693): > 10.2 µM; AUC (SB-505124): 0.971; IC50 (SB-505124): > 10 µM; AUC (BX-795): 0.992; IC50 (BX-795): > 5 µM; AUC (Tretinoin): 0.975; IC50 (Tretinoin): > 10 µM

Which results are given for RCC-AB (kidney, adherent)?
AUC (UNC0638; [1]): 0.975; IC50 (UNC0638; [1]): > 20 µM; AUC (UNC0638; [2]): 0.818; IC50 (UNC0638; [2]): 32.1 µM; AUC (PI-103): 0.322; IC50 (PI-103): 0.174 µM; AUC (GSK690693): 0.787; IC50 (GSK690693): 5.96 µM; AUC (SB-505124): 0.977; IC50 (SB-505124): > 10 µM; AUC (BX-795): 0.921; IC50 (BX-795): > 5 µM; AUC (Tretinoin): 0.981; IC50 (Tretinoin): > 10 µM

For RCC-ER (kidney, adherent), which AUC (UNC0638; [1]) is on record?
The AUC was 0.97.

And the IC50 (UNC0638; [1])?
Its IC50 is > 20 µM.

And the AUC (UNC0638; [2])?
The AUC was 0.977.

What about the IC50 (UNC0638; [2]) of the same cell line?
Its IC50 is > 40 µM.

And the AUC (PI-103)?
The AUC was 0.816.

What about the IC50 (PI-103) of the same cell line?
Its IC50 is 6.54 µM.

And the AUC (GSK690693)?
Its AUC is 0.978.

And the IC50 (GSK690693)?
The IC50 was > 10.2 µM.

What about the AUC (SB-505124) of the same cell line?
Its AUC is 0.939.

What about the IC50 (SB-505124) of the same cell line?
Its IC50 is > 10 µM.

And the AUC (BX-795)?
The AUC was 0.905.

And the IC50 (BX-795)?
Its IC50 is > 5 µM.

What about the AUC (Tretinoin) of the same cell line?
The AUC was 0.984.

And the IC50 (Tretinoin)?
Its IC50 is > 10 µM.
